# Test results: PubChem BioAssay AID686979 (National Center for Advancing Translational Sciences (NCATS), 2013)
# Hit rate of the full screen: of about 420,000 compounds, about 50,000 (12%) were called active. Inconclusive results, whose numbers are uncertain, are shown with a selection of clear calls. Calls come from the whole dose curve; as a rule, active = well fitted inhibition curve with a large enough effect; inconclusive = small, poorly fitted or top-dose-only effect; inactive = flat fitted curve, though single readings scatter. No potency is given beside an inconclusive call; the fits are too rough.
# Assay: qHTS for Inhibitors of human tyrosyl-DNA phosphodiesterase 1 (TDP1): qHTS in cells in presence of CPT; note: nearly all actives have a fitted effect of over 55% in size
# Conditions: chicken DT40 Tdp1-/-;hTDP1 cells + 20 nM CPT, ATP luminescence, 48 h; activity change, negative = growth inhibition: at 46.2 µM (top of the series) unless noted
# Procedure, shortened: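 Cell growth measured by CellTiter-Glo luminescence after a minimum 48 h, 37 C compound exposure with 20 nM CPT in Tdp1-knockout DT40 cells stably expressing hTDP1, seeded 400/well; qHTS titration format.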
# % is set by controls: 0 for no effect and ±100 for the full control effect; potency is the fitted concentration of half-maximal effect; tags give direction and shape of the fitted curve.
SMILES,Potency,"activity change, negative = growth inhibition"
CC(C)=CCC/C(C)=C/Cc1c(O)ccc(C(=O)/C=C/c2ccc(O)cc2)c1O,"inconclusive [inhibitor, single point]",
S=C(NCc1ccc(Cl)cc1)Nc1ccccc1Cl,"inconclusive [inhibitor, single point]",
CC1=C(C(=O)N(C(C)C)C(C)C)CC(CC(=O)NC(c2ccccc2)c2ccccc2)C(=O)N1Cc1ccc(C(C)(C)C)cc1 (centres undefined),"inconclusive [inhibitor, single point]",
O=C(CSc1nc2ccccc2c(=O)n1-c1ccccc1)N1CCC1,inactive,
Nc1c(Cl)cc(C2=NCCn3c2c2ccc([N+](=O)[O-])cc2[n+]3[O-])cc1Cl,active: 1.84 µM,
CCN(CC)CC(C)(C)C(=O)/C=C/c1ccc(/C=C/C(=O)C(C)(C)CN(CC)CC)cc1,active: 0.517 µM,
COc1ccccc1OCCC(=O)OCC(=O)c1[nH]c(C)c(C(C)=O)c1C,"inconclusive [inhibitor, single point]",
Cc1ncc([N+](=O)[O-])n1CCN1C(=O)c2ccccc2C1=O,inactive,
CCOc1cc(CNC2CCCC2)ccc1OCc1ccccc1Cl,active: 13 µM,
O=C(NOCc1cscn1)Nc1ccccc1,inactive,
COC(=O)c1cc2c(C)cc3ccc(C)cn3c-2c1C(=O)OC,"inconclusive [inhibitor, single point]",
Cc1cc(N=Cc2c(O)n(-c3ccc4c(c3)OCO4)c(=O)c3ccccc23)ccn1,active: 18.4 µM,
NC(=O)Cn1c(=O)n(-c2ccc(F)c(Cl)c2)c(=O)c2sc3ccccc3c21,inactive,
Cc1cccn2c(=O)c3cc(C#N)c(=O)n(Cc4cccnc4)c3nc12,inactive,
O=C(Nc1nc(-c2ccccn2)cs1)c1cccc(S(=O)(=O)N2CCOCC2)c1,active: 4.11 µM,
CCc1nc2c(OCc3ccc(F)c(F)c3)cccn2c1N(C)C(=O)C1CC1,active: 20.6 µM,
CCn1nc(C(=O)Nc2ccc3c(c2)OCCO3)c2ccccc2c1=O,"inconclusive [inhibitor, single point]",
O=C(NN1C(=O)NC2(CCCCC2)C1=O)c1ccc(-c2ccc(Cl)cc2)o1,"inconclusive [inhibitor, single point]",
CN(C)C(=O)c1cc(C(=O)Cc2ccccc2)c[nH]1,inactive,
CCC(C)(C)NC(=O)C1CCN(c2nc(C)cc(C)n2)CC1,"inconclusive [inhibitor, full curve, poor fit]",
Cc1ccc(-c2csc3ncnc(SCC(N)=O)c23)cc1,"inconclusive [inhibitor, single point]",
COc1ccc(CNc2ccnc(-c3ccccc3OC)n2)c(OC)c1,active: 13 µM,
O=C(O)C1CCC(Cn2c(SCc3cc(=O)n4ccccc4n3)nc3ccsc3c2=O)CC1 (centres undefined),inactive,
Clc1ccc2nccnc2c1,active: 1 µM,
COc1ccc(OC(C)C(=O)N(C)Cc2nc(-c3ccc(C)cc3)no2)cc1 (centres undefined),"inconclusive [inhibitor, single point]",

SMILES,Potency,"activity change, negative = growth inhibition"
CNC(=O)c1ccc(Nc2nnc(-c3ccc(C)c(S(N)(=O)=O)c3)c3ccccc23)cc1,inactive,
CCOc1cc(C(=S)N2CCC(O)CC2)ccc1OS(=O)(=O)c1ccc(Br)cc1,"inconclusive [inhibitor, single point]",
CCn1nc(C)c(CNC(=O)CCc2nnc(Cc3c[nH]c4ccccc34)o2)c1C,inactive,
Cc1ccc(C)c(N2CCN(C(=O)c3csc4ccccc34)CC2)c1,"inconclusive [inhibitor, single point]",
CCOc1ncccc1C(=O)OCC(=O)c1c[nH]c2ccccc12,inactive,
CC[C@H](C)[C@H](NC(=O)OCc1ccccc1)C(=O)OCC(=O)N1CCN(c2ccc(OC)cc2)CC1,"inconclusive [inhibitor, single point]",
COc1ccc(CNS(=O)(=O)CCNCc2ccccc2OC)cc1,inactive,
Cc1cn2c(=O)c(S(=O)(=O)NC(C)c3ccccc3)c(C)nc2s1 (centres undefined),inactive,
Cc1cc2c(c(-c3cnccn3)c1)OC(CNC(=O)C1CCCN(C)C1)C2 (centres undefined),,inactive: 28.7% [at 9.04 µM]
COC(=O)c1ccc(Cl)c(S(=O)(=O)N2CCCC2)c1,inactive,
CCc1ncnc2cc(OC)c(OC)cc12,"inconclusive [inhibitor, single point]",
N#CCCNc1c(Cl)cc(Cl)cc1C(=O)O,inactive,
Cc1ccc(C)c2sc(N3CCN(C(=O)c4ccco4)CC3)nc12,"inconclusive [inhibitor, single point]",
Cc1ccc(NC(=O)Cn2ncc3c4ccccc4n(Cc4ccccc4)c3c2=O)cc1Cl,"inconclusive [inhibitor, single point]",
O=C(CSCc1ccccc1)N1CCN(c2cccc(C(F)(F)F)c2)CC1,"inconclusive [inhibitor, single point]",
N=c1c(S(=O)(=O)c2ccc(Cl)cc2)cc2c(=O)n3ccccc3nc2n1Cc1ccco1,"inconclusive [inhibitor, single point]",
O=C(CSc1nnnn1-c1ccc2c(c1)OCO2)NCc1ccccc1,active: 14.6 µM,
O=C(C[C@H]1C[C@H](C(=O)N2CCOCC2)[C@@]2(CCC3CCCC3)c3[nH]c4ccc(Cl)cc4c3CCN2C1=O)NCCN1CCOCC1,"inconclusive [inhibitor, partial curve]",
CCCNCc1cc(OC)c(OCCC)cc1Cl,"inconclusive [inhibitor, single point]",
CC1(C(=O)NC2CCCC2)CCC(=O)N1Cc1ccccc1 (centres undefined),inactive,
Cc1ccc(N2CC(C(=O)OCC(=O)Nc3ccccc3C)CC2=O)cc1 (centres undefined),inactive,
COCCNC(=O)CN(c1cc(Cl)ccc1OC)S(C)(=O)=O,inactive,
CCc1ccccc1NC(=O)CSc1nc2n[nH]c(C)c2c(=N)n1-c1cccc(OC)c1,active: 16.4 µM,
COc1ccccc1N1CCN(S(=O)(=O)c2ccc3c(c2)NC(=O)C(C)C(=O)N3)CC1 (centres undefined),"inconclusive [inhibitor, single point]",
